This passage reports self-cleavage results from the RNAGym collection of RNA variant scans (doi:10.7554/elife.90254).

B1: OR4K15 (parent)
chain: GUUAACGGUCAUAGGCCAUGGAAACUAGGAGCACCAUUUCGCUGCCAGUGAAGAAAUGAACAAAGAAAAUCUGGGCCAGGCAGGCAUCAAAAGAAAUAGUCUUGCGCUCAACCAGAAAGUCUGUAAUCAUUUUAAGGGUA

The source gives no read counts; variants with many changes may rest on few reads.

Variants of B1 are the subject of this data set. As to the kind of experiment: self-cleavage, relative activity (ratio to wild type); higher = more cleavage; in vitro, sequencing; the parent is a self-cleaving ribozyme.
In the case of A30G A33G A125U, the self-cleavage was 1.87.

As to A30G U43C A91U U124A, the self-cleavage stood at 1.03.

Take A27G A62U U87C U102C C121A: the self-cleavage was determined as 2.73.

On to A30G U38C A52G A66G U70C, for which the self-cleavage was 0.85.

With A27C A82G A135G, the self-cleavage was determined as 0.65.

As to A27U A47G U57C A95G A111G U122C, the self-cleavage worked out at 0.01.

With A27U C107G A117G, the self-cleavage came to 0.01.

For the variant A30G A64G A89G A91G, the self-cleavage is 1.2.

As to A27G A36U A47U A52G C85U A118G A129U A135G, the self-cleavage came out at 0.02.

Take A30G A52U A60G A82G A96G A117G: the self-cleavage is 0.39.

In the case of A30U A67G U108C, the self-cleavage worked out at 0.

As to A27G A68G A114U, the self-cleavage amounted to 0.22.

Take U26G A64G U120C: the self-cleavage turned out to be 0.98.

As for G29U A36G C71U, the self-cleavage is 0.37.

For A27G A67G A86G A116G, the self-cleavage was determined as 0.7.

On to A30G A94U U97C G106U G138U, for which the self-cleavage was found to be 0.01.

With G28A A56G A90C U124A, the self-cleavage stood at 0.56.

With A27G A64G A86G A114G, the self-cleavage was 1.28.

In the case of A30G A33G G48C A54G, the self-cleavage was 0.46.

For A27G A64G U70C U103C, the self-cleavage turned out to be 0.61.

Consider A30G U37A A51G U130C, for which the self-cleavage was 1.02.

Regarding A30G A47U G65A A118G, the self-cleavage was 0.34.

With A30G A52G U87C A94U A118U, the self-cleavage came to 1.9.

Turning to A27G A90G A126G, the self-cleavage was found to be 0.67.

In the case of G29A A51U A91G U122C, the self-cleavage amounted to 0.37.

As for A27G U37C A59G C77U U87C, the self-cleavage was 1.62.

Regarding A30U U108C U130C, the self-cleavage worked out at 0.02.

Turning to A30U A33G U124C, the self-cleavage is 0.48.

For the variant G31A A91G A94G, the self-cleavage came to 1.72.

For A27G U37C U87C U108C, the self-cleavage came out at 0.02.

Turning to C32A U43C A68G A114G A134G, the self-cleavage was 0.31.

For the variant A27U A82G U130C, the self-cleavage amounted to 0.24.

For A30G A51U A62G A69G U87C A117G, the self-cleavage turned out to be 0.74.

With A30G U39C A51G, the self-cleavage was 0.96.

Regarding A30U C46U A54G U57A A89U A111G A116G, the self-cleavage amounted to 0.03.

As to A30G A68G A96G, the self-cleavage was determined as 1.38.

A27G A51U A66G A69U: the self-cleavage is 0.89.

For the variant A30G G44A U49G A78G G106A, the self-cleavage amounted to 0.08.

On to A30G U70C A129G, for which the self-cleavage worked out at 0.54.

Regarding A30G A94U A96G, the self-cleavage turned out to be 0.9.

As to U26G A55G A56G, the self-cleavage stood at 1.26.

Take C32A A59G A117G: the self-cleavage was 1.31.

For A30G A47U A55U A116U, the self-cleavage amounted to 0.18.

In the case of A30G A64G A68G A116U U120C, the self-cleavage came out at 0.59.

Consider G29U A47G A110G U132C, for which the self-cleavage was 0.1.

In the case of A30U A36G U130C, the self-cleavage was found to be 0.7.

In the case of A30G U37C A91G, the self-cleavage is 1.17.

Take A30G A47U A86U A92G: the self-cleavage stood at 1.39.

For the variant A27G A67G A94G, the self-cleavage came to 0.85.

As for A30G A78G U87C A89G A90G A116G, the self-cleavage came to 0.1.

As to A27G A69C C107U, the self-cleavage turned out to be 0.03.

As for A27G A64G U70A U97C, the self-cleavage turned out to be 1.31.

Take G31U A82C A126G: the self-cleavage is 0.02.

In the case of A30U A64G A94G A110G U130C, the self-cleavage was found to be 0.16.

For the variant A30G A94G A114U U130C U133C, the self-cleavage was 0.04.

As for G29A G74A A95G, the self-cleavage came out at 0.33.

A30U A62G U102C U103C: the self-cleavage was 0.17.

As for A30G U38A A55G A56G, the self-cleavage is 0.88.

For G29C A91G A92U A117G, the self-cleavage turned out to be 2.75.

For the variant A27G U103C A134G, the self-cleavage is 0.18.

As for A30G A111U U132C, the self-cleavage was determined as 0.17.

With A27U A91G A92G U108C, the self-cleavage came to 0.01.

On to A30G A33G A47G A52G A111G U130C, for which the self-cleavage came to 0.02.

G28U A56G A116G: the self-cleavage was 1.83.

As to G29A U43A U127C, the self-cleavage stood at 1.31.

With G31U A82U A92G, the self-cleavage was found to be 0.45.

Regarding A30G A55G U70C U131C, the self-cleavage stood at 0.72.

Consider A27G A62G A82G, for which the self-cleavage was found to be 0.42.

As to A27G A110G U122A, the self-cleavage came to 0.12.

Consider A27G U43A U49A A98G A134G, for which the self-cleavage came to 0.31.

With A30G U57A A92U, the self-cleavage worked out at 0.35.

In the case of A30G A91G A96G U102C, the self-cleavage is 1.44.

Regarding G31A A68G A78G A114G, the self-cleavage worked out at 0.03.

On to A30G A86U A111G U132C, for which the self-cleavage was 0.

Take A30G U39C A68G A91G U132C: the self-cleavage worked out at 1.24.

A30U U37C A52G G79U A98G A116G: the self-cleavage amounted to 0.01.

Turning to A30G A91G U124C U132A, the self-cleavage stood at 0.89.

A30G U38C U39A A78U A92G: the self-cleavage was found to be 0.41.

As for A30G U37C U132C, the self-cleavage was determined as 1.76.

In the case of A27G A68G C113U U122A, the self-cleavage came out at 0.01.

For the variant G29A A91G A114G, the self-cleavage is 0.05.

Take A30U U37C A67G U100C: the self-cleavage came out at 2.19.

Regarding A30G A66G U70C U132C A135G, the self-cleavage amounted to 0.7.
